Measured values reported in the supplement of paper PMC6531468.
The other results are listed elsewhere or left out. Values come from read counts of a selection and are noisy. Each score is taken over the longer molecules that contain the sequence shown.

Legend:
Test in all cases: 6-mer SELEX enrichment z-score vs GST control; IMP3 is the RNA-binding protein IGF2BP3; higher = more enriched by binding
IMP3 KH1-4 = details: construct: KH1-4 (164-579); SELEX round: R4
Description: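 SELEX-seq with GST-tagged IMP3 KH1-4 (Pro164-Lys579) and an N40 RNA pool, round 4. 6-mer z-score of sequence-tag enrichment normalised to the corresponding GST SELEX round; RNA k-mers written as DNA (T for U).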

IMP3 full-length = IMP3 full-length (UniProt O00425); details: construct: FL IMP3 (1-579); SELEX round: R4
Chain of UniProt O00425 (O00425 whole entry): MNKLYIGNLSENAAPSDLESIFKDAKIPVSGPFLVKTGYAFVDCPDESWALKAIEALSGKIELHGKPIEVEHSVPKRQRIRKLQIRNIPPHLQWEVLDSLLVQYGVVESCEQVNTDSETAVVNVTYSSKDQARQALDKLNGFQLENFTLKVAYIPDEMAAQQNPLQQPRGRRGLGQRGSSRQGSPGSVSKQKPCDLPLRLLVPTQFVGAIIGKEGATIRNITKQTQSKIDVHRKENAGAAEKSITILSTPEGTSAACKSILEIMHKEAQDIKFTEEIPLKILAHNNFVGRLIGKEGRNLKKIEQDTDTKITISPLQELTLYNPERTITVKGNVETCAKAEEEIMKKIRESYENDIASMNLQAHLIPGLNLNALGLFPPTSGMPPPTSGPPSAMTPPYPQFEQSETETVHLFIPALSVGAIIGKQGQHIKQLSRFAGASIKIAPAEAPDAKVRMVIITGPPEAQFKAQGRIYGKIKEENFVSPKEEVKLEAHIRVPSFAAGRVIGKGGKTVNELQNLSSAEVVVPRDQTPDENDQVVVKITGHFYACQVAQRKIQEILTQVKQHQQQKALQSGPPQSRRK
Description: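 SELEX-seq with GST-tagged full-length IMP3 and an N40 RNA pool, round 4. Each 6-mer is scored as an enrichment z-score of sequence tags containing it, normalised to the matching GST SELEX round. RNA written as DNA (T = U).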

IMP3 KH1-2 = details: construct: KH1-2 (164-376); SELEX round: R4
Chain of IMP3 KH1-2 (chain, as listed by the source): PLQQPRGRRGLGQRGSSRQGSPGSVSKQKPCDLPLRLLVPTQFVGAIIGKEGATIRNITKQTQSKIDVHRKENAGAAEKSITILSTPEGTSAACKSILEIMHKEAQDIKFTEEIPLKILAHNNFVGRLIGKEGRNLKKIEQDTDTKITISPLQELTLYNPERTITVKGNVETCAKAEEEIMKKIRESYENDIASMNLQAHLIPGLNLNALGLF
Description: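 SELEX-seq with GST-tagged IMP3 KH1-2 (Pro164-Phe376) and an N40 RNA pool, round 4 (stringent 300/600 mM KCl washes). 6-mer z-score of sequence-tag enrichment normalised to the corresponding GST SELEX round; RNA k-mers written as DNA (T for U).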

IMP3 KH3-4 = details: construct: KH3-4 (377-579); SELEX round: R4
Chain of IMP3 KH3-4 (chain, as listed by the source): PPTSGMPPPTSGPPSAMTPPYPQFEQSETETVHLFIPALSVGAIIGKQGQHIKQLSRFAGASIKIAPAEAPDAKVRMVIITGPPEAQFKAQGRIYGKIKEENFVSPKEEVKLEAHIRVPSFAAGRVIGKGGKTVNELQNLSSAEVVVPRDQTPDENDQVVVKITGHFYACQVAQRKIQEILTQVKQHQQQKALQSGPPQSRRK
Description: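 SELEX-seq with GST-tagged IMP3 KH3-4 (Pro377-Lys579) and an N40 RNA pool, round 4. 6-mer z-score of sequence-tag enrichment normalised to the corresponding GST SELEX round; RNA k-mers written as DNA (T for U).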

Chain of IMP3 KH1-4 (chain, as listed by the source): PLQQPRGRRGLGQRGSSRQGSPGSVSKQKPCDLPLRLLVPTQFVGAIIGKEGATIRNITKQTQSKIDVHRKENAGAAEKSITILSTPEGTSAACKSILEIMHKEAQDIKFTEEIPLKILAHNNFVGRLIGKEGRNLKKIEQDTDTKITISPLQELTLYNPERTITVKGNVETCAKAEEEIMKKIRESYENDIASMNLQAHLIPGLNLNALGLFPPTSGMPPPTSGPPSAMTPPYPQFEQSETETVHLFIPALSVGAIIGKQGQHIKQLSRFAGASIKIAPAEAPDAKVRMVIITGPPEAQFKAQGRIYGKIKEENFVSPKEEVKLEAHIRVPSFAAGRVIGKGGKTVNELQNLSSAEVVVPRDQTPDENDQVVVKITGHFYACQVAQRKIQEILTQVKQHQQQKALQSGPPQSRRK

Sequence	6-mer SELEX enrichment z-score (IMP3 KH1-4)	6-mer SELEX enrichment z-score (IMP3 full-length)	6-mer SELEX enrichment z-score (IMP3 KH1-2)	6-mer SELEX enrichment z-score (IMP3 KH3-4)
ATGGAT	0.956	0.106	0.6	1.08
CCCGGA	-1.28	-0.898	-1.07	-1.42
GGAGGC	0.779	0.858	0.844	0.66
GCGACT	-0.675	-0.13	-0.551	-0.586
AAGGCG	-0.509	0.125	-0.472	-0.148
CATGGT	0.208	0.58	0.114	0.108
ATCTGG	-0.146	0.256	-0.176	-0.145
AGAGGC	1.26	1.07	1.02	1.32
CGGGTA	-0.398	0.073	-0.237	-0.029
TGTACC	-0.663	-0.289	-0.717	-0.949
ACTGTA	0.447	-0.09	0.404	0.412
CGTGAA	-0.363	-0.654	-0.391	-0.299
ATCTCC	0.126	-0.075	-0.028	-0.472
CGCCTT	-0.24	-0.236	-0.145	-0.299
CATAGT	0.24	0.59	0.078	0.206
GAATTA	1.09	-0.312	0.824	1.9
CCGCGA	-1.24	-0.548	-1.01	-1.27
TGTCCC	-0.172	-0.329	-0.236	-0.704
TTACTC	-0.294	-0.326	-0.198	-0.335
CGATGT	-0.463	-0.467	-0.477	-0.35
CGGTTC	-0.225	0.122	-0.202	-0.146
ATAGCA	1.15	0.886	1.09	1.03

Sequence	6-mer SELEX enrichment z-score (IMP3 KH1-4)	6-mer SELEX enrichment z-score (IMP3 full-length)	6-mer SELEX enrichment z-score (IMP3 KH1-2)	6-mer SELEX enrichment z-score (IMP3 KH3-4)
CAAATA	1.08	-0.09	1.32	1.57
TACTAG	0.348	-0.018	0.274	0.506
ACAGCA	0.992	2.27	1.1	0.354
CCTCCA	-0.115	-0.373	-0.005	-0.841
AATGCC	-0.705	-1.08	-0.737	-0.95
CTTAGT	-0.189	-0.19	-0.154	-0.05
GCGACG	-0.963	-0.145	-0.853	-0.864
GAATTC	0.279	-0.09	0.262	0.311
TTACAA	1.14	0.278	1.37	1.52
ATCTAT	0.923	0.326	0.689	0.86
CACCAC	0.668	0.859	0.663	-0.732
GAAGGA	0.85	-0.261	0.564	0.868
ACTGAA	0.472	-0.77	0.413	0.573
CGCCCG	-0.947	-0.287	-0.789	-1.31
CTGCTC	-0.065	0.069	-0.036	-0.263
AAGGGA	0.812	-0.342	0.671	1
CCGCGG	-0.19	0.447	-0.056	-0.332
TTGTTC	0.411	0.134	0.279	0.361
AATGTA	0.44	-0.611	0.092	0.901
CTTTAG	0.093	-0.066	0.093	0.218
GTCGTG	0.013	0.224	-0.013	0.153
AGTTAA	-0.302	-0.582	-0.332	0.042

Sequence	6-mer SELEX enrichment z-score (IMP3 KH1-4)	6-mer SELEX enrichment z-score (IMP3 full-length)	6-mer SELEX enrichment z-score (IMP3 KH1-2)	6-mer SELEX enrichment z-score (IMP3 KH3-4)
GGAGAA	1.04	-0.296	0.758	1.15
GATCTA	0.008	-0.283	-0.091	0.035
ACGAGA	-1.37	-1.08	-1.3	-1.11
CTCTCG	-0.712	-0.07	-0.61	-0.569
TCTCTA	0.174	0.065	0.204	0.217
CATGTA	0.882	0.635	0.557	0.734
CCTTAG	-0.18	-0.349	-0.205	-0.216
TATGTG	0.694	-0.166	0.413	0.813
TTGTGA	0.167	-0.436	-0.058	0.281
AGTAAG	0.384	-0.023	0.249	0.539
GATCCG	-0.588	-0.343	-0.476	-0.738
CCTGGT	-0.392	-0.132	-0.298	-0.384
GGCTTA	0.348	0.363	0.295	0.934
GGAAAA	0.286	-1.14	0.119	0.973
AAACAT	1.22	1.64	1.17	1.84
GGAATC	-0.427	-0.144	-0.442	-0.445
TAGCGG	0.326	0.416	0.235	0.637
GTTGAA	-0.411	-0.607	-0.462	-0.255
CTTTAC	0.617	-0.114	0.71	0.48
TCTCCG	-0.346	0.089	-0.132	-0.404
ATTACC	-0.094	-0.466	-0.1	-0.306
GCCCGC	-0.829	-0.009	-0.496	-1.09
